According to patent US20190169308A1 (ALLIGATOR BIOSCIENCE, published 2019):
Residue numbers refer to the chain shown, from its start.

T1: 5T4-Fc (human, UniProt Q13641 32-355, limits assumed)
T1 construct: obtained from Peter L. Stern, University of Manchester; also called h5T4-Fc; recombinant 5T4
T1 sequence (looked up): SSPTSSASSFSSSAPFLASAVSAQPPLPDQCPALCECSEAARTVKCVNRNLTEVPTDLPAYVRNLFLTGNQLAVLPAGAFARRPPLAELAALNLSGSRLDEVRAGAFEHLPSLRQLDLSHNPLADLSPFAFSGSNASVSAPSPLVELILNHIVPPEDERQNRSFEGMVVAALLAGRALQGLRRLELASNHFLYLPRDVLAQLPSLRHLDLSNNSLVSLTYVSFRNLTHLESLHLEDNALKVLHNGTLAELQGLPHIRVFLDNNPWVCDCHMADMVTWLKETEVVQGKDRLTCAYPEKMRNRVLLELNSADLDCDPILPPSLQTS

B1: 1204-1206 (bispecific antibody)
heavy: EVQLLESGGGLVQPGGSLRLSCAASGFTFSSYYMGWVRQAPGKGLEWVSGIGSYYGYTGYADSVKGRFTISRDNSKNTLYLQMNSLRAEDTAVYYCARAYYDYNYYYAYFDYWGQGTLVTVSS[no letters for human IgG1 constant region]GGGGSGGGGSEVQLLESGGGLVQPGGSLRLSCAASGFTFSGSSMSWVRQAPGKGLEWVSSIYYSGSGTYYADSVKGRFTISRDNSKNTLYLQMNSLRAEDTAVYYCARYGRNVHPYNLDYWGQGTLVTVSSGGGGSGGGGSGGGGSDIQMTQSPSSLSASVGDRVTITCRASQSISSYLNWYQQKPGKAPKLLIYAASSLQSGVPSRFSGSGSGTDFTLTISSLQPEDFATYYCQQGYYYLPTFGQGTKLEIK
light: DIQMTQSPSSLSASVGDRVTITCRASQSISSYLNWYQQKPGKAPKLLIYAASSLQSGVPSRFSGSGSGTDFTLTISSLQPEDFATYYCQQSVPHYPFTFGQGTKLEIKRTVAAPSVFIFPPSDEQLKSGTASVVCLLNNFYPREAKVQWKVDNALQSGNSQESVTEQDSKDSTYSLSSTLTLSKADYEKHKVYACEVTHQGLSSPVTKSFNRGEC
notes: Morrison format IgG-scFv
B2: 1204-1210 (bispecific antibody)
heavy: EVQLLESGGGLVQPGGSLRLSCAASGFTFSSYYMGWVRQAPGKGLEWVSGIGSYYGYTGYADSVKGRFTISRDNSKNTLYLQMNSLRAEDTAVYYCARAYYDYNYYYAYFDYWGQGTLVTVSS[no letters for human IgG1 constant region]GGGGSGGGGS[no letters for about 100 residues]YYGGYYSAWMDYWGQGTLVTVSSGGGGSGGGGSGGGGSDIQMTQSPSSLSASVGDRVTITCRASQSISSYLNWYQQKPGKAPKLLIYAASSLQSGVPSRFSGSGSGTDFTLTISSLQPEDFATYYCQQTYGYLHTFGQGTKLEIK
light: B1 light
notes: Morrison format IgG-scFv
B3: 1202-1210 (bispecific antibody)
heavy: EVQLLESGGGLVQPGGSLRLSCAASGFTFYGSSMSWVRQAPGKGLEWVSSIYYGSSGTYYADSVKGRFTISRDNSKNTLYLQMNSLRAEDTAVYYCARSYYGYFDYWGQGTLVTVSS[no letters for human IgG1 constant region]GGGGSGGGGS[no letters for about 100 residues]YYGGYYSAWMDYWGQGTLVTVSSGGGGSGGGGSGGGGSDIQMTQSPSSLSASVGDRVTITCRASQSISSYLNWYQQKPGKAPKLLIYAASSLQSGVPSRFSGSGSGTDFTLTISSLQPEDFATYYCQQTYGYLHTFGQGTKLEIK
light: B1 light with S91Y, V92Y, P93T, H94V, Y95V
notes: Morrison format IgG-scFv
B4: 1200-1210 (bispecific antibody)
heavy: EVQLLESGGGLVQPGGSLRLSCAASGFTFSSYAMSWVRQAPGKGLEWVSGISGGGGGTYYADSVKGRFTISRDNSKNTLYLQMNSLRAEDTAVYYCARDVAYFDYWGQGTLVTVSS[no letters for human IgG1 constant region]GGGGSGGGGS[no letters for about 100 residues]YYGGYYSAWMDYWGQGTLVTVSSGGGGSGGGGSGGGGSDIQMTQSPSSLSASVGDRVTITCRASQSISSYLNWYQQKPGKAPKLLIYAASSLQSGVPSRFSGSGSGTDFTLTISSLQPEDFATYYCQQTYGYLHTFGQGTKLEIK
light: DIQMTQSPSSLSASVGDRVTITCRASQSISSYLNWYQQKPGKAPKLLIYAASSLQSGVPSRFSGSGSGTDFTLTISSLQPEDFATYYCQQYYIPHTFGQGTKLEIKRTVAAPSVFIFPPSDEQLKSGTASVVCLLNNFYPREAKVQWKVDNALQSGNSQESVTEQDSKDSTYSLSSTLTLSKADYEKHKVYACEVTHQGLSSPVTKSFNRGEC
notes: Morrison format IgG-scFv
B5: 1620-1210 (bispecific antibody)
heavy: EVQLLESGGGLVQPGGSLRLSCAASGFTFSGYYMYWVRQAPGKGLEWVSGISSSGSYTYYADSVKGRFTISRDNSKNTLYLQMNSLRAEDTAVYYCARSVGPYFDYWGQGTLVTVSS[no letters for human IgG1 constant region]GGGGSGGGGS[no letters for about 100 residues]YYGGYYSAWMDYWGQGTLVTVSSGGGGSGGGGSGGGGSDIQMTQSPSSLSASVGDRVTITCRASQSISSYLNWYQQKPGKAPKLLIYAASSLQSGVPSRFSGSGSGTDFTLTISSLQPEDFATYYCQQTYGYLHTFGQGTKLEIK
light: B4 light with Y91G, Y92V, I93G, H95Y
notes: Morrison format IgG-scFv
B6: 1214-1210 (bispecific antibody)
heavy: EVQLLESGGGLVQPGGSLRLSCAASGFTFSSYAMSWVRQAPGKGLEWVSSIGSGGGYTGYADSVKGRFTISRDNSKNTLYLQMNSLRAEDTAVYYCARVGHPFDYWGQGTLVTVSS[no letters for human IgG1 constant region]GGGGSGGGGS[no letters for about 100 residues]YYGGYYSAWMDYWGQGTLVTVSSGGGGSGGGGSGGGGSDIQMTQSPSSLSASVGDRVTITCRASQSISSYLNWYQQKPGKAPKLLIYAASSLQSGVPSRFSGSGSGTDFTLTISSLQPEDFATYYCQQTYGYLHTFGQGTKLEIK
light: B4 light with Y91D, Y92A, I93Y
notes: Morrison format IgG-scFv
B7: 1206-1202 (bispecific antibody)
heavy: EVQLLESGGGLVQPGGSLRLSCAASGFTFSGSSMSWVRQAPGKGLEWVSSIYYSGSGTYYADSVKGRFTISRDNSKNTLYLQMNSLRAEDTAVYYCARYGRNVHPYNLDYWGQGTLVTVSS[no letters for human IgG1 constant region]GGGGSGGGGSEVQLLESGGGLVQPGGSLRLSCAASGFTFYGSSMSWVRQAPGKGLEWVSSIYYGSSGTYYADSVKGRFTISRDNSKNTLYLQMNSLRAEDTAVYYCARSYYGYFDYWGQGTLVTVSSGGGGSGGGGSGGGGSDIQMTQSPSSLSASVGDRVTITCRASQSISSYLNWYQQKPGKAPKLLIYAASSLQSGVPSRFSGSGSGTDFTLTISSLQPEDFATYYCQQYYTVVPFTFGQGTKLEIK
light: DIQMTQSPSSLSASVGDRVTITCRASQSISSYLNWYQQKPGKAPKLLIYAASSLQSGVPSRFSGSGSGTDFTLTISSLQPEDFATYYCQQGYYYLPTFGQGTKLEIKRTVAAPSVFIFPPSDEQLKSGTASVVCLLNNFYPREAKVQWKVDNALQSGNSQESVTEQDSKDSTYSLSSTLTLSKADYEKHKVYACEVTHQGLSSPVTKSFNRGEC
notes: Morrison format IgG-scFv
B8: 1210-1204 (bispecific antibody)
heavy: [no letters for about 100 residues]YYGGYYSAWMDYWGQGTLVTVSS[no letters for human IgG1 constant region]GGGGSGGGGSEVQLLESGGGLVQPGGSLRLSCAASGFTFSSYYMGWVRQAPGKGLEWVSGIGSYYGYTGYADSVKGRFTISRDNSKNTLYLQMNSLRAEDTAVYYCARAYYDYNYYYAYFDYWGQGTLVTVSSGGGGSGGGGSGGGGSDIQMTQSPSSLSASVGDRVTITCRASQSISSYLNWYQQKPGKAPKLLIYAASSLQSGVPSRFSGSGSGTDFTLTISSLQPEDFATYYCQQSVPHYPFTFGQGTKLEIK
light: B7 light with G91T, Y93G, P96H
notes: Morrison format IgG-scFv
B9: 1210-1202 (bispecific antibody)
heavy: [no letters for about 100 residues]YYGGYYSAWMDYWGQGTLVTVSS[no letters for human IgG1 constant region]GGGGSGGGGSEVQLLESGGGLVQPGGSLRLSCAASGFTFYGSSMSWVRQAPGKGLEWVSSIYYGSSGTYYADSVKGRFTISRDNSKNTLYLQMNSLRAEDTAVYYCARSYYGYFDYWGQGTLVTVSSGGGGSGGGGSGGGGSDIQMTQSPSSLSASVGDRVTITCRASQSISSYLNWYQQKPGKAPKLLIYAASSLQSGVPSRFSGSGSGTDFTLTISSLQPEDFATYYCQQYYTVVPFTFGQGTKLEIK
light: B7 light with G91T, Y93G, P96H
notes: Morrison format IgG-scFv
B10: 1206-1204 (bispecific antibody)
heavy: EVQLLESGGGLVQPGGSLRLSCAASGFTFSGSSMSWVRQAPGKGLEWVSSIYYSGSGTYYADSVKGRFTISRDNSKNTLYLQMNSLRAEDTAVYYCARYGRNVHPYNLDYWGQGTLVTVSS[no letters for human IgG1 constant region]GGGGSGGGGSEVQLLESGGGLVQPGGSLRLSCAASGFTFSSYYMGWVRQAPGKGLEWVSGIGSYYGYTGYADSVKGRFTISRDNSKNTLYLQMNSLRAEDTAVYYCARAYYDYNYYYAYFDYWGQGTLVTVSSGGGGSGGGGSGGGGSDIQMTQSPSSLSASVGDRVTITCRASQSISSYLNWYQQKPGKAPKLLIYAASSLQSGVPSRFSGSGSGTDFTLTISSLQPEDFATYYCQQSVPHYPFTFGQGTKLEIK
light: B7 light
notes: Morrison format IgG-scFv

molecular target: T1, 5T4-Fc; assay: dual ELISA: coated 5T4-Fc, detection with CD137-bio
Description: Bispecific binding to both targets, CD137 and 5T4, was evaluated using a standard ELISA protocol. Plates (#655074, Greiner Bio-One GmbH, Germany) were pre-coated with 0.5 μg/ml 5T4-Fc (obtained from Professor Peter Stern, University of Manchester) overnight. CD137-5T4 bsAb were diluted from 8 to 2×10⁻³ μg/ml in 1:4 dilutions and added in duplicates of 50 μl to each well. CD137-bio (Ancell #502-030) was used as detection antibody at 0.5 μg/ml and the binding was detected with Streptavidin-HRP (Pierce #21126). The ELISA was developed with SuperSignal ELISA PICO Chemiluminescent substrate (Thermo Scientific Pierce, Rockford, Ill. USA) during 2-10 minutes and read in an automated microplate based multi-detection reader (FLUOstar OPTIMA, Netherlands).

EC50 [nM] | Binder
0.54 | B1
0.73 | B2
1.2 | B3
3.73 | B4
1.74 | B5
0.19 | B6
0.28 | B7
0.28 | B8
0.28 | B9
0.66 | B10
